From paper PMC4336329 (PLoS ONE, 2015)
About 2,200 (0.71%) of roughly 310,000 compounds showed an effect of 50% or more. The effect is printed as a negative number. This is one part of the list.

Molecular target: human ether-à-go-go-related gene (hERG) potassium channel (human, UniProt Q12809)
Assay: primary screen, population patch clamp on CHO cells stably expressing hERG

Chain of human ether-à-go-go-related gene (hERG) potassium channel (Q12809 whole entry, looked up): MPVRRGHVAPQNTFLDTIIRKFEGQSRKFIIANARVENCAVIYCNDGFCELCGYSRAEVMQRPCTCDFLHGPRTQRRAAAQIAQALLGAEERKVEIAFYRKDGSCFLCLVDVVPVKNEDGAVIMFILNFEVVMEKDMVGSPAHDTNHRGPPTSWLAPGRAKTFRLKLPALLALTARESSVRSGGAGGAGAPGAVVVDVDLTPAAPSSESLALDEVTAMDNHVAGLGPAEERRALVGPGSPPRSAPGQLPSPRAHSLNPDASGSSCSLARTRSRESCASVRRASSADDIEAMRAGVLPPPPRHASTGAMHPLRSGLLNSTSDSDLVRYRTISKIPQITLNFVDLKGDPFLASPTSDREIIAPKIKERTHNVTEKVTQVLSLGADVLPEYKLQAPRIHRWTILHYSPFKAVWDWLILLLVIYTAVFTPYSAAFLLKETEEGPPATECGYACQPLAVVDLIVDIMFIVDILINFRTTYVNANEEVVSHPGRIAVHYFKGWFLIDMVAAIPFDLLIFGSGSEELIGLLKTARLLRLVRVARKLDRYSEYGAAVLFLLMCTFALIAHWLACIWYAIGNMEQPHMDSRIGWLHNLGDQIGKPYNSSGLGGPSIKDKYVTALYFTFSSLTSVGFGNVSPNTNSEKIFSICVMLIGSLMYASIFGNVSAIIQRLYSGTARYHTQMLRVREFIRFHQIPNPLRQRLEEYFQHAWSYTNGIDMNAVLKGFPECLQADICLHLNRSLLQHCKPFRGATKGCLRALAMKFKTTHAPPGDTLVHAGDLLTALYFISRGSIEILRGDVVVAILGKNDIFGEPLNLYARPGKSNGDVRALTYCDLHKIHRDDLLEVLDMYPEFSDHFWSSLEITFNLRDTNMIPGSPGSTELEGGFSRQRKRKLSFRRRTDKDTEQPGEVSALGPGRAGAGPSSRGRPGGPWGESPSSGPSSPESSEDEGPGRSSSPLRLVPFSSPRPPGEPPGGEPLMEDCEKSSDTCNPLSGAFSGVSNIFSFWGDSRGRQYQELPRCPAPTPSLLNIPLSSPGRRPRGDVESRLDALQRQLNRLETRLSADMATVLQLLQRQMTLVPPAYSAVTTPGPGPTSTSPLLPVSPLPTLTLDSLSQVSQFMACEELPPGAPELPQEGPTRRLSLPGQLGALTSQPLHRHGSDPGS

SMILES | hERG current change (%, negative = inhibition) at 1uM [%]
CCN1CCN(c2ccc(NC(=O)c3ccco3)cc2)CC1 | 6.04
Cc1cccn2c(=O)c3cc(C#N)c(=NC(=O)c4cccs4)n(CCCOC(C)C)c3nc12 | -26.1
Cc1cccc(-c2noc(C3CCCCC3)n2)c1 | 14.5
O=C(COC(=O)c1cc([N+](=O)[O-])ccc1NCc1ccccc1Cl)NCC(F)(F)F | -0.68
Cc1nonc1CC(=O)NC1CC(C)(C)Cc2c1cnn2-c1ccc(F)cc1 (stereo not shown) | 4.98
O=C(Nc1ccc2c(c1)OCCO2)C1CCCN1C(=O)Nc1ccc(F)cc1 (stereo not shown) | 13
CCCCN(Cc1cccs1)S(=O)(=O)c1ccc(-c2ccc(=O)[nH]n2)s1 | 12.2
COCCN(C(=O)Cn1nnc2ccccc21)C(C(=O)NC1CCCC1)c1cc(OC)ccc1OC (stereo not shown) | -0.322
Cc1c(N/N=C(\C#N)C(=O)c2ccc(Cl)cc2)c(=O)n(-c2ccccc2)n1C | 11.2
COc1ccc(OC)c(NC(=O)Cn2c(=O)oc3ccccc32)c1 | 7.02
CCN(CC)S(=O)(=O)c1ccc(N2CCCCC2)c(NC(=O)c2ccncc2)c1 | 6.47
CC(=O)NCCn1c(SCc2ccccc2C)nc2ccccc2c1=O | 1.26
CCNC(=S)N/N=C(\C)c1ccc(Cl)s1 | 19.3
COc1ccc(OCc2nnc(SCC(=O)NC3CC3)n2C)cc1 | 14.3
COc1ccc(CCN(C)C(=O)COc2ccc(N(C)S(=O)(=O)c3ccc(C)cc3)cc2)cc1OC | 7.35
Cc1ccc(S(=O)(=O)N(C)C)cc1NC(=S)Nc1ccc2cn[nH]c2c1 | 6.7
COc1ccccc1CNC(=O)CCc1nnc2ccc(NCCCN3CCCC3=O)nn12 | 12.9
Cc1cc(C(=O)N/N=C/c2ccc3c(c2)OCO3)c(C)o1 | 5.47
OCC1(Cc2ccccc2)CCCN(C2CCCC2)C1 (stereo not shown) | -3.43
Cc1ccc2occ(C(=O)c3ccco3)c(=O)c2c1 | 5.9
C=CCc1cccc2cc(C(=O)NC3=C(C#N)CCC3)c(=O)oc12 | 1.54
CCOC(=O)N1CCC(N2C(=O)c3ccccc3C2Nc2ccc3c(C)cc(=O)oc3c2)CC1 (stereo not shown) | -10.6

SMILES | hERG current change (%, negative = inhibition) at 1uM [%]
CCOC(=O)c1c(C)n(CCOC)c2ccc(O)cc12 | 12.3
CCOC(=O)CN(C(=O)CSc1nnc(C)n1-c1ccccc1)c1cccc([N+](=O)[O-])c1 | -1.67
Cc1ccc2nc(SCC(=O)NCc3ccc4c(c3)OCO4)nc(=O)n2c1 | 8.95
Cc1ccc(C(N)=S)c(C)c1 | 13.3
CCC(C)/C=C/C1=CC2=C(Cl)C(=O)C3(C)OC(=O)C(C(=O)C(C)C(C)O)C3C2=CO1 (stereo not shown) | 14
CCc1ccc2[nH]c3nc(SCc4nnc(-c5ccccc5)o4)nnc3c2c1 | 15.3
CN1C(=O)C(c2ccccc2)C(=O)N(C)C1=O | 12.6
CC(NC(=O)c1ccc(-c2ccccc2)cc1)C(c1ccccc1)N1CCOCC1 (stereo not shown) | 3.97
CCCCNC(=O)c1ccc(N2CCC3(CC2)OCCO3)c([N+](=O)[O-])c1 | 5.82
CCCN(CC(=O)Nc1ccc(F)c(F)c1F)C(=O)CCc1nc2ccccc2c(=O)[nH]1 | -8.65
COc1ccc(CCNC(=O)C2CCCN(S(=O)(=O)N3CC(C)CC(C)C3)C2)cc1OC (stereo not shown) | 6.52
COCCNCCOCCOc1ccc(Cl)c(C)c1.O=C(O)C(=O)O | 3.47
COc1ccc(S(=O)(=O)N(C)C2CCN(C)CC2)cc1 | -2.93
CCCN(CC(=O)Nc1ccccc1C)C(=O)Cc1coc2cc(C)ccc12 | -23.1
CC(C)C(=O)NC(C)C(c1cccs1)N1CCN(c2ccccc2)CC1 (stereo not shown) | 3.16
O=c1[nH][nH]cc1C=Nc1ccc(Oc2ccccc2)cc1 | 9.3
COc1ccccc1CNC(=O)CCc1cn(C)c2ccccc12 | 5.5
CCN(CC(=O)NC(=O)NCc1ccco1)Cc1nc2ccccc2c(=O)[nH]1 | 8.27
CC1(C)CC(=O)C(C(c2ccc(F)cc2)C2C(=O)CC(C)(C)CC2=O)C(=O)C1 | 17
CCc1ccccc1NS(=O)(=O)c1cc(C)ccc1OC | -4.13
COC(=O)c1cc2n(n1)CCN(Cc1ccc(F)cc1)C2=O | -2.09
COc1cccc(/C(O)=C2/C(=O)C(=O)N(CCN3CCOCC3)C2c2cccnc2)c1 (stereo not shown) | 10.7

SMILES | hERG current change (%, negative = inhibition) at 1uM [%]
Cc1nc2c(o1)CCc1ccccc1C2N1CCN(C)CC1.O=C(O)/C=C/C(=O)O (stereo not shown) | 5.21
CCc1cccc(N(CC(=O)NC2CCCCC2)C(=O)c2csnn2)c1 | 10.4
CC(C)(C)NC(=O)COc1ccc(CNc2ccc3[nH]c(=O)[nH]c3c2)cc1 | 6.35
CN(C)S(=O)(=O)c1cccc(COC(=O)c2cccnc2Cl)c1 | -5.16
c1ccc(C2=Nn3c(Cn4nnc5ccccc54)nnc3SC2)cc1 | 9.56
O=C(C1CCCO1)N1CCN(c2ccc(F)cc2)CC1 (stereo not shown) | 3.43
CCOC(=O)c1cnn2c(C)cc(-c3ccc(F)cc3)nc12 | -4.24
Cc1ccccc1C(=O)N/N=C/c1ccsc1C | 9.56
O=C(Cn1nc(C(=O)O)c2ccccc2c1=O)Nc1ccc(Br)cc1 | 12.7
CCC(CC)c1nnc(NC(=O)Oc2ccccc2)s1 | 1.13
CCCc1ccc(C(=O)CN2C(=O)C(=O)N(C3CCCC3)C2=O)cc1 | 0.929
Cc1cccc(C(=O)NCCc2ccccc2)c1 | -2.51
CCCn1nc(Oc2nc(NCC)nc(NCC)n2)ccc1=O | 10.6
CCC(C)(C)C1CCC2(CC1)NC(=O)N(CC(=O)N(C)CC(=O)Nc1ccccc1C(F)(F)F)C2=O (stereo not shown) | 1.57
Cc1ccnn1CCC(=O)N1CCCC(Nc2ccc(F)c(F)c2)C1 (stereo not shown) | 19.6
CC(C)NC(=O)C1CCCN(c2nnc(-n3cccc3)s2)C1 (stereo not shown) | 2.28
CCc1cc(=O)oc2cc(OC(C)C(=O)NCc3ccccn3)ccc12 (stereo not shown) | 22.5
COc1cc(CO)ccc1OCC(=O)Nc1cccc2ccccc12 | 9.53
CC(C)n1cnnc1SCC(=O)Nc1cccc(S(=O)(=O)N(C)c2ccccc2)c1 | 4.63
CC(C)CO/C(=N/S(=O)(=O)c1ccccc1)c1ccccc1 | 13.7
CCSc1nnc(NC(=O)c2ccc(Br)s2)s1 | 5.18
Cn1cnnc1SCC(=O)c1ccc(O)c(O)c1 | 17.4

SMILES | hERG current change (%, negative = inhibition) at 1uM [%]
O=C(O)CC(NNC(=O)c1ccccc1)C(=O)Nc1cccc([N+](=O)[O-])c1 (stereo not shown) | 12.5
CCCNC(=O)C1CC(c2ccccc2[N+](=O)[O-])=NO1 (stereo not shown) | 7.38
Cc1cccc(C(=O)OCC(=O)N2CCC(c3ccccc3)=N2)c1O | 16.6
COc1ccc(S(=O)(=O)n2cnc3cc(C)c(C)cc32)cc1 | 10
CCOc1ccc(NC(=O)CCCCCN2C(=O)[C@@H]3Cc4ccccc4CN3C2=O)cc1 | 16.7
Fc1ccc(C(c2nnnn2Cc2cccs2)N2CCN(C3CCCCC3)CC2)cc1 (stereo not shown) | -46.6
Cc1nc(Cl)nc(N(C)c2ccccc2)c1[N+](=O)[O-] | 14.5
CCOC(=O)CNC(=O)CSc1ncccc1-c1nc2ccccc2[nH]1 | 10.4
COc1cc(/C=N/OCC(=O)NC2CCCCC2)ccc1OCc1ccccc1 | 10.1
O=C(CCn1nc(-c2ccccc2)ccc1=O)N1CCN(c2ccccc2)CC1 | -2.36
O=C(OCCN1C(=O)c2ccccc2C1=O)c1ccco1 | 10.5
COc1cc(OC)cc(-c2nnc(SCC(=O)NCc3cccs3)o2)c1 | 12.6
COc1ccc(Nc2cc(Nc3ccccc3)ncn2)cc1 | 7.07
Cc1ccc2[nH]c(=O)c(CN(Cc3ccco3)C(=O)N3CCOCC3)cc2c1 | 11.1
CCc1ccc(NC(=O)CN(c2ccccc2)S(=O)(=O)N(C)C)cc1 | 9.07
CC(C)c1ccccc1NC(=S)NC1CCCCC1 | -3.11
CC(C)(C)c1ccc(C(=O)NCC(=O)N2CCC3(CC2)NCCc2[nH]cnc23)cc1 | 17.8
Cc1ccc(C(=O)NN2C(=O)c3ccc(S(=O)(=O)c4ccc(C(=O)O)cc4)cc3C2=O)cc1 | 15.7
O=C(COc1ccccc1Cl)NC(=S)Nc1cccc(NC(=O)c2ccccc2Cl)c1 | 19.9
O=C(COC(=O)Cn1cnc2ccccc21)Nc1cccc2c1C(=O)c1ccccc1C2=O | 13.1
Cc1ccc(S(=O)(=O)NCCN2CCOCC2)s1 | 12.4
CN(C(=O)COC(=O)COc1ccc2c(c1)CCC2)c1c(N)n(Cc2ccccc2)c(=O)[nH]c1=O | 0.783
